# Experimental data taken from article PMC4336329 (PLoS ONE, 2015).
# In all, about 310,000 compounds went through this assay and about 2,200 (0.71%) showed an effect of 50% or more. The effect is printed as a negative number. The list shows a part of the results.
# Target: human ether-à-go-go-related gene (hERG) potassium channel (human, UniProt Q12809)
# Experiment: primary screen, population patch clamp on CHO cells stably expressing hERG
# Sequence of human ether-à-go-go-related gene (hERG) potassium channel (Q12809 whole entry, looked up): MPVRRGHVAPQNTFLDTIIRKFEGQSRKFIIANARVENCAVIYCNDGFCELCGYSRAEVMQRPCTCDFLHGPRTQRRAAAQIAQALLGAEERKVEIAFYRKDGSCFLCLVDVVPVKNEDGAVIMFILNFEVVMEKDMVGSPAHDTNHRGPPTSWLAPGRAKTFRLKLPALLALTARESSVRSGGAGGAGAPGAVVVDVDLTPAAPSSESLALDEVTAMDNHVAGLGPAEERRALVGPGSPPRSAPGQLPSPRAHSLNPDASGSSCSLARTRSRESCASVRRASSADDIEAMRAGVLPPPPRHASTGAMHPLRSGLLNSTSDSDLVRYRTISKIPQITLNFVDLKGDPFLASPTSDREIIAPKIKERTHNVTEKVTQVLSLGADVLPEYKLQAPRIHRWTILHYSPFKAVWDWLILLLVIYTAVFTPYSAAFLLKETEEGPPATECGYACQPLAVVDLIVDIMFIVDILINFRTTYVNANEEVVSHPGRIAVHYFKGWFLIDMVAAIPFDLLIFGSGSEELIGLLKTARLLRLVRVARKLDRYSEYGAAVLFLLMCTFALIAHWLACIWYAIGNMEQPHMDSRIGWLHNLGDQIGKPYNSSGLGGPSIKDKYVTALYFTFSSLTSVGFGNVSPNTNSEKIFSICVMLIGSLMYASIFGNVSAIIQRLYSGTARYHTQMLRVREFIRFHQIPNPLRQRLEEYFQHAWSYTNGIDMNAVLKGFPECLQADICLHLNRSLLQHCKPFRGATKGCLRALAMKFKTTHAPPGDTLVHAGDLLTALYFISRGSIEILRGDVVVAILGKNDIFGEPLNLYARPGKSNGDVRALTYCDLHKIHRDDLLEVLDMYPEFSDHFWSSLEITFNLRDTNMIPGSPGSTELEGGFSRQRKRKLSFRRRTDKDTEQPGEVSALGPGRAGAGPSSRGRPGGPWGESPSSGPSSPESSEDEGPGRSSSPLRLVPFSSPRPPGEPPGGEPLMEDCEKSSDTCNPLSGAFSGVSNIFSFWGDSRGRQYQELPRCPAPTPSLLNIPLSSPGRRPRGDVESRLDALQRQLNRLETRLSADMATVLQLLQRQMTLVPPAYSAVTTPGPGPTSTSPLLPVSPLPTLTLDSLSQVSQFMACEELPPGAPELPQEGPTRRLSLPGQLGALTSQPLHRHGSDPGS
row,SMILES,"hERG current change (%, negative = inhibition) at 1uM"
1,COc1ccc([C@@H]2CC=C(C(=O)O)[C@H](c3cccc(Cl)c3)N2S(=O)(=O)c2ccc(C)cc2)cc1OC,16.1%
2,CC(=O)c1ccccc1C(=O)N1CCCC(N2CCN(Cc3ccc4c(c3)OCO4)CC2)C1 (centres unmarked),6.05%
3,COc1ccc(-c2[nH]ncc2CN2CCCO2)c(F)c1,10.3%
4,COc1ccc(Nc2nc(NCc3ccco3)nc(N/N=C/c3ccc(O)cc3)n2)cc1,-2.89%
5,O=C(CC1S/C(=N/N=C/c2c[nH]c3ccccc23)NC1=O)Nc1ccccc1 (centres unmarked),5.08%
6,CCOC(=O)N1CCN(c2c(N3CC=C(c4ccccc4)CC3)c(=O)c2=O)CC1,-6.68%
7,CN1CCN(C(=O)NC2CCCCC2)CC1.O=C(O)C(=O)O,6.34%
8,O=C(c1ccccc1NS(=O)(=O)c1ccc(Cl)cc1)N1CCc2ccccc21,12.2%
9,O=C(Nc1cc(C(F)(F)F)ccc1N1CCOCC1)c1n[nH]c(=O)c2ccccc12,1.77%
10,Cc1ccc(-c2nnc(SCC(=O)Nc3sc(C)c(C)c3C#N)n2C)cc1,-11.9%
11,Cc1ccccc1NC(=O)CCS(=O)(=O)c1ccc(Br)cc1,10.3%
12,NC(=O)C1CCN(C(=O)/C(=C/c2ccco2)NC(=O)c2ccccc2)CC1,6.13%
13,Cc1cc(C(=O)Nc2cccnc2Cl)on1,2.31%
14,O=C(NCc1ccc2c(c1)OCO2)C1CCN(S(=O)(=O)c2ccc(Br)s2)CC1,9.97%
15,COc1ccccc1-n1nnnc1SCC(=O)N(CC(C)C)C1CCS(=O)(=O)C1 (centres unmarked),0.673%
16,Cc1cc(NC(=O)CN2C(=O)NC(CC(C)C)C2=O)ccc1Br (centres unmarked),4.2%
17,c1ccc2c3c([nH]c2c1)CNCC3,15.7%
18,Cc1cccc(C)c1NC(=O)CCCSc1nnc(-c2ccco2)n1-c1ccccc1,-0.258%
19,O=C(N/N=C1\CCSC1)c1cc(Cl)ccc1O,7.09%
20,CCOc1ccc(CN2CCN(C(=O)c3cccc(F)c3)CC2)cc1.O=C(O)C(=O)O,-30.6%
21,CC(C)[C@H](NC(=O)NCc1ccc(F)cc1)C(=O)O,13.6%
22,Cn1nc(C(=O)Nc2ccc(Br)cc2)cc1C(=O)Nc1ccc(Br)cc1,4.86%

row,SMILES,"hERG current change (%, negative = inhibition) at 1uM"
1,Br.FC(F)Oc1ccc(-c2csc(NNC3=NCCCCC3)n2)cc1,-10.3%
2,COc1ccc(CC(=O)Nc2ccc(S(=O)(=O)Nc3onc(C)c3C)cc2)cc1OC,15.3%
3,Cc1ccc(SCC(=O)OCC(=O)NCCc2ccccc2)cc1,13.3%
4,CCCc1nnc(SCC(=O)Nc2ccccc2Cl)n1CC1CCCO1 (centres unmarked),9.7%
5,CC1C(=O)N(Cc2ccccc2)c2ccccc2N1C(=O)c1ccccc1 (centres unmarked),9.51%
6,Cc1ccc(NC(=O)COc2ccccc2)c(NC(=O)c2ccccc2C)c1,5.7%
7,CCOc1ccc(-c2csc3nc[nH]c(=O)c23)cc1,13.9%
8,Cc1nc(-c2ccc(F)cc2)c(CC(=O)N(C)CC(=O)Nc2ccc(Br)cc2C)s1,18.1%
9,Cn1c(SCc2cccc(Br)c2)nc2ccccc2c1=O,15.5%
10,Cl.c1cc2c(cc1C1CCCCC1)c1c3n2CCCNC3CCC1 (centres unmarked),-5.39%
11,O=c1oc2ccccc2c(O)c1/C=N/c1ccccn1,12.8%
12,COc1ccc(CNC(=O)CSCc2c(F)cccc2Cl)cc1,-1.01%
13,CCN(CC)c1ccc(NC(=O)COC(=O)c2ccc3ccccc3n2)cc1,-1.19%
14,C=CC(COCc1ccccc1)N(C(=O)OC(C)(C)C)S(=O)(=O)c1ccccc1Br (centres unmarked),1.36%
15,C=Cc1cccc(NC(=O)COc2ccccc2)c1,12.7%
16,C=CCOC(=O)C1=C[C@@H](c2ccc(Br)cc2)[C@H](CCCO)[C@@H](OCC)O1,15.6%
17,O=C(OC1CCCCC1=O)c1cccc(S(=O)(=O)N2CCCCC2)c1 (centres unmarked),10.5%
18,CC(C(=O)Nc1ccc2c(c1)OCCO2)N(C)Cc1c(F)cccc1Cl (centres unmarked),11.2%
19,Cc1ccc(CNC(=O)Cc2ccc(-n3c(=O)[nH]c4ccsc4c3=O)cc2)cc1,6.06%
20,CCOC(=O)N1CCC(NC(=O)CCC(=O)N2CCOc3ccc(C)cc32)CC1,7.27%
21,COc1cccc(CNC(=O)CCS(=O)(=O)c2cccs2)c1,-12%
22,COC(=O)C1CCN(C(=O)c2cc3c(=O)n4cccc(C)c4nc3n2Cc2ccccc2)CC1,13.5%

row,SMILES,"hERG current change (%, negative = inhibition) at 1uM"
1,CCn1c(NC(=O)c2ccc(COc3ccc(C)cc3[N+](=O)[O-])o2)nc2ccccc21,-1.09%
2,O=C(C[n+]1ccccc1)N/N=C/c1ccccc1Cl.[Cl-],13.2%
3,COc1cc(-c2nnc(SCC(=O)c3cc(C)n(CC4CCCO4)c3C)o2)cc(OC)c1OC (centres unmarked),2.73%
4,c1ccc(-c2cc(-c3nnc4sc(-c5ccccn5)nn34)[nH]n2)cc1,7.08%
5,CCc1nnc(NC(=O)CCC(=O)N2CCCC(O)C2)s1 (centres unmarked),13.3%
6,O=c1c2ccccc2nnn1CSc1nnc(-c2cccs2)n1Cc1ccccc1,-14.3%
7,CCOC(=O)c1[nH]c2cc3c(cc2c1NC(=O)CN1CCc2ccccc2C1)OCO3,5.37%
8,CC(OC(=O)c1cc(O)c2ccccc2c1O)C(=O)Nc1ccc(C(N)=O)cc1 (centres unmarked),11.5%
9,CC(C)(C)C(=O)Nc1ccc2c(c1)-c1cc(NC(=O)C(C)(C)C)ccc1C2,13.7%
10,COc1ccc(C(N)=S)c(OC)c1,1.77%
11,COc1ccc(/C=C/C(=O)NC(=S)N2CCCCC2)cc1OC,14.5%
12,Cc1ccccc1NC(=O)Cc1nnc(SCC(=O)N2CCOCC2)n1C,-1.79%
13,CC(=O)N1CCN(C(=O)CCN(c2ccccc2)S(=O)(=O)c2ccc(C)cc2)CC1,1.04%
14,Cc1c(C(=O)NC2CCN(Cc3ccccc3)C2)oc2c(Cl)cccc12 (centres unmarked),2.96%
15,COc1cccc2cc(-c3n[nH]c(=S)n3C)oc12,11.2%
16,COc1cccc(N2C(=O)CC(N3CCc4ccccc43)C2=O)c1 (centres unmarked),16.8%
17,CN1C(=O)NC(NC(=O)c2ccncc2)(C(F)(F)F)C1=O (centres unmarked),14%
18,CCOc1ccccc1C(=O)Nc1ccc(C(=O)c2ccccc2)cc1,12.4%
19,CCN(CC(=O)Nc1c(F)cccc1F)C(=O)CCOc1ccccc1,7.03%
20,O=C(O)c1ccccc1SCc1cn2cc(Cl)ccc2n1,8.76%
21,CC(C)(C)C(=O)NC1CC2CCCC(C1)N2C(=O)Nc1ccccc1Cl (centres unmarked),19.1%
22,CCOC(=O)c1cc(-c2ccc(Cl)cc2)nc2c1c(=O)[nH]c(=O)n2CCOC,10.4%

row,SMILES,"hERG current change (%, negative = inhibition) at 1uM"
1,CC(=O)c1ccc(N2CCN(C(=O)c3ccc4c(=O)n(-c5ccccc5)c(=O)[nH]c4c3)CC2)cc1,8.24%
2,CC(C)C(=O)Nc1cc(-c2nc3ncccc3o2)ccc1Cl,13.5%
3,Cc1cc(C)c(-n2nnnc2SCC(=O)c2cccs2)c(C)c1,13.4%
4,Cc1ccc(NC(=O)Cn2c(O)c(N=NC(=O)c3cc4ccccc4cc3O)c3ccccc32)cc1,11.4%
5,COc1ccc(Cn2nnnc2C(c2ccncc2)N2CCOCC2)cc1 (centres unmarked),0.213%
6,O=C(CN1CCCC1)Nc1c(C(=O)C2CC2)oc2ccccc12,8.68%
7,CCOC(=O)N1CCN(C(=O)COc2cccc3c2CCN(Cc2ccccc2C)C3=O)CC1,0.619%
8,C/C(=N\NC(=S)NCCc1ccccc1)c1ccc(Cl)cc1Cl,8.66%
9,Cc1ccc(C)n1-c1ccc2c(c1)COC2=O,0.209%
10,CCN1CCN(C(=O)c2ccc(S(=O)(=O)Nc3ccccc3)cc2)CC1.Cl,9.78%
11,O=C(c1ccc(Cl)c(Cl)c1)N1CCC(O)(CN2CCOCC2)CC1,-6.73%
12,COc1cccc(CN2CCNC(=O)C2CC(=O)NCc2cn3ccc(C)cc3n2)c1OC (centres unmarked),7.75%
13,CC(C)CC(NC(=O)C1CCC(C)CC1)C(=O)Nc1ccc2c(c1)OCCO2 (centres unmarked),8.16%
14,O=C(NCCC(=O)N1CCN(c2ccccc2O)CC1)c1ccc(Br)cc1,11.9%
15,O=C(NCC1COc2ccccc2O1)c1ccc(NC(=O)C(c2ccccc2)c2ccccc2)cc1 (centres unmarked),12.8%
16,COC(=O)c1cn(NC(=O)C2COc3ccccc3O2)c(=O)c2ccccc12 (centres unmarked),8.47%
17,Cc1ccc(-c2nnn(CC(=O)N3CCCCC3)n2)o1,-5.76%
18,COc1ccc(-n2nnnc2CNC(=O)C2CC(=O)N(c3ccc(Cl)cc3)C2)cc1 (centres unmarked),-1.33%
19,COc1cccc(C(C(=O)NC2CCCCC2)N(C(=O)CNC(=O)c2ccco2)c2cccnc2)c1 (centres unmarked),8.42%
20,CCN(CC)CCN1C(=O)C(=O)/C(=C(/O)c2c(C)[nH]c(C(=O)OC)c2C)C1c1ccc(OC)cc1 (centres unmarked),0.699%
